Measurements: the supplement of paper PMC8047034
Structures can show the parent of a compound that is named as a salt. The list shows a part of the results. Single values are uncertain, as repeats are few or missing.

How the values were obtained:
[1] = tested on: OVCAR4; assay: log2 surviving fraction (library drug vs vehicle, or drug + carboplatin vs carboplatin alone; relative to plate median); ovarian cancer lines: OVCAR4 is platinum-sensitive and Ov4Carbo platinum-resistant; higher = more cell survival; details: library drug concentration 10 µM, 7 days
[2] = tested on: Ov4Carbo; assay: as above; details: library drug concentration 10 µM, 7 days

Structure (SMILES)	log2 surviving fraction ([1]; carboplatin co-treatment 0 µM)	log2 surviving fraction ([1]; carboplatin co-treatment 5 µM)	log2 surviving fraction ([2]; carboplatin co-treatment 0 µM)	log2 surviving fraction ([2]; carboplatin co-treatment 5 µM)
Cc1onc(-c2ccccc2Cl)c1C(=O)N[C@@H]1C(=O)N2[C@@H]1SC(C)(C)[C@@H]2C(=O)O [Cloxacillin sodium (Cloxacap)]	0.481	0.548	1.2	1.14
Clc1ccc(CCC(Cn2ccnc2)Sc2c(Cl)cccc2Cl)cc1 (centres undefined) [Butoconazole nitrate]	-1.77	-2.24	-2.41	-2.75
CCCC(=O)Nc1ccc(OCC(O)CNC(C)C)c(C(C)=O)c1 (centres undefined) [Acebutolol HCl]	0.638	0.297	1.06	1.41
Cc1cccc(C(C)c2c[nH]cn2)c1C (centres undefined) [Medetomidine HCl]	0.691	0.512	1.12	0.0749
CC(=O)OCC(CCn1cnc2cnc(N)nc21)COC(C)=O [Famciclovir (Famvir)]	-0.232	0.032	0.107	0.473
COc1ccc(/C=C/C(=O)Nc2ccccc2C(=O)O)cc1OC	-0.258	-0.707	0.931	0.00794
C#C[C@]1(O)CC[C@H]2[C@@H]3CCC4=CC(=O)CC[C@]4(C)[C@H]3CC[C@@]21C [Ethisterone]	-0.734	-0.4	0.285	0.106
CN1CCN(C2=Nc3ccccc3Oc3ccc(Cl)cc32)CC1 [Loxapine Succinate]	-0.0479	0.012	-0.651	-0.532
C[N+](C)(C)CCO.[Cl-] [Choline Chloride]	0.66	-0.387	-1.18	-0.367
CC1=NN(c2ccccc2)C(=O)C1 [Edaravone (MCI-186)]	0.696	-1.69	0.0776	0.235
Cc1c(O)c(=O)ccn1C [Deferiprone]	0.21	0.105	-0.5	-1.01
CC(C)NCC(O)c1ccc(NS(C)(=O)=O)cc1 (centres undefined) [Sotalol (Betapace)]	-0.108	-0.617	0.125	0.267
Oc1ccc(OCc2ccccc2)cc1 [Monobenzone (Benoquin)]	-4.27	-4.61	-4.02	-4.73
C=CC[N+]1([C@H]2C[C@H]3[C@@H]4CC[C@H]5C[C@H](O)[C@@H](N6CCOCC6)C[C@]5(C)[C@H]4CC[C@]3(C)[C@H]2OC(C)=O)CCCC1 [Rocuronium bromide]	1.23	1.37	0.887	0.0569
CN1C2CCCC1CC(NC(=O)c1nn(C)c3ccccc13)C2 (centres undefined) [Granisetron HCl]	0.247	0.609	-0.0202	-0.376
COC(=O)C1=C(C)NC(C)=C(C(=O)OC)C1c1ccccc1[N+](=O)[O-] [Nifedipine (Adalat)]	0.662	0.435	-0.0166	0.736
C[C@@H]1CN(c2c(F)c(F)c3c(=O)c(C(=O)O)cn(C4CC4)c3c2F)C[C@H](C)N1 [Orbifloxacin]	0.0374	0.568	0.0241	0.594
C=C(C)[C@@H]1[C@H]2OC(=O)[C@@H]1[C@]1(O)C[C@H]3O[C@]34C(=O)O[C@H]2[C@]14C [Picrotoxinin]	-0.309	1.14	-0.0813	-1.35
O=c1oc2c(O)c(O)cc3c(=O)oc4c(O)c(O)cc1c4c23 [Ellagic acid]	0.582	-0.284	-0.18	0.241
NNc1nncc2ccccc12 [Hydralazine hydrochloride]	0.202	0.444	0.0876	0.559
CC(=O)Nc1c(I)c(C(=O)N[C@H]2C(O)O[C@H](CO)[C@@H](O)[C@@H]2O)c(I)c(N(C)C(C)=O)c1I (some centres undefined) [Metrizamide]	1.33	1.03	1.1	1.49
CCN1CCC[C@H]1CNC(=O)c1cc(S(N)(=O)=O)ccc1OC [Levosulpiride (Levogastrol)]	0.262	0.00763	0.17	-0.0663
CC[C@H]1OC(=O)[C@H](C)[C@@H](O[C@H]2C[C@@](C)(OC)[C@@H](O)[C@H](C)O2)[C@H](C)[C@@H](O[C@@H]2O[C@H](C)C[C@H](N(C)C)[C@H]2O)[C@](C)(O)C[C@@H](C)[C@@H]2N[C@@H](COCCOC)O[C@H]([C@H]2C)[C@]1(C)O [Dirithromycin]	-0.0909	0.216	-0.0802	-0.0274
O=C1C(O)=C([C@H]2CC[C@H](c3ccc(Cl)cc3)CC2)C(=O)c2ccccc21 [Atovaquone (Atavaquone)]	0.176	-0.387	0.968	1.21
CC(C)=CC1C(C(=O)OCc2cccc(Oc3ccccc3)c2)C1(C)C (centres undefined) [Phenothrin]	-0.281	0.111	0.117	0.00861
CCC[C@@H]1C[C@@H](C(=O)N[C@@H]([C@H]2O[C@H](SC)[C@H](O)[C@@H](O)[C@H]2O)[C@H](C)Cl)N(C)C1 [Clindamycin hydrochloride (Dalacin)]	0.825	0.623	0.458	0.585

Structure (SMILES)	log2 surviving fraction ([1]; carboplatin co-treatment 0 µM)	log2 surviving fraction ([1]; carboplatin co-treatment 5 µM)	log2 surviving fraction ([2]; carboplatin co-treatment 0 µM)	log2 surviving fraction ([2]; carboplatin co-treatment 5 µM)
Nc1[nH]cnc2ncnc1-2 [Adenine]	0.889	0.547	0.622	-1.35
CCCCCCCCCC(=O)N[C@H]1[C@H](Oc2c3cc4cc2Oc2ccc(cc2Cl)[C@@H](O[C@@H]2O[C@H](CO)[C@@H](O)[C@H](O)[C@H]2NC(C)=O)[C@@H]2NC(=O)[C@H](NC(=O)[C@@H]4NC(=O)[C@H]4NC(=O)[C@@H](Cc5ccc(c(Cl)c5)O3)NC(=O)[C@H](N)c3ccc(O)c(c3)Oc3cc(O)cc4c3)c3ccc(O)c(c3)-c3c(OC4O[C@H](CO)[C@@H](O)[C@H](O)[C@@H]4O)cc(O)cc3[C@@H](C(=O)O)NC2=O)O[C@H](CO)[C@@H](O)[C@@H]1O (some centres undefined) [Teicoplanin]	-0.25	-0.681	-0.0426	1.38
N[C@H](C(=O)O)[C@H](O)c1ccc(O)c(O)c1 [Droxidopa (L-DOPS)]	1.47	-0.225	-0.437	0.192
CC1(C)O[C@@H]2[C@@H](CO[C@@]3(COS(N)(=O)=O)OC(C)(C)O[C@@H]23)O1 [Topiramate]	-0.975	-0.783	1.74	-0.574
CN1[C@@H]2CC(O)C[C@H]1[C@@H]1O[C@@H]12 (some centres undefined) [Scopine]	0.466	-0.139	0.325	-0.226
CC(=O)O[C@H]1CC[C@@]2(C)C(=CC[C@@H]3[C@@H]2CC[C@]2(C)C(c4cccnc4)=CC[C@@H]32)C1 [Abiraterone Acetate (CB7630)]	-0.997	-0.707	-0.122	0.111
Cc1cc(C(C)(C)C)cc(C)c1CC1=NCCN1 [Xylometazoline HCl]	0.0516	-0.45	0.572	0.189
CN1[C@@H]2CC[C@H]1C[C@@H](OC(=O)c1c[nH]c3ccccc13)C2 [Tropisetron]	-0.117	0.118	0.0169	-0.532
Nc1[nH]cnc2ncnc1-2 [Adenine sulfate]	1.27	2	1.18	0.411
CN1CC(=O)N2[C@H](c3ccc4c(c3)OCO4)c3[nH]c4ccccc4c3C[C@@H]2C1=O [Tadalafil (Cialis)]	0.263	0.366	0.506	-0.136
COc1cc(NS(=O)(=O)c2ccc(N)cc2)nc(OC)n1 [Sulphadimethoxine]	0.551	0.00631	-0.305	-1.04
NS(=O)(=O)c1cc2c(cc1Cl)N=C(CSCc1ccccc1)NS2(=O)=O [Benzthiazide]	1.05	0.485	1.71	1.44
Cc1cc2nc3c(=O)[nH]c(=O)nc-3n(C[C@H](O)[C@H](O)[C@H](O)CO)c2cc1C [Riboflavin (Vitamin B2)]	1.02	0.371	-0.123	-0.0347
CC(=O)[C@H]1CC[C@H]2[C@@H]3CCC4=CC(=O)CC[C@]4(C)[C@H]3CC[C@]12C [Progesterone (Prometrium)]	-2.32	-0.299	-0.457	-0.509
CC(C)C[C@H]1C(=O)N2CCC[C@H]2[C@]2(O)O[C@](NC(=O)[C@@H]3C=C4c5cccc6[nH]c(Br)c(c56)C[C@H]4N(C)C3)(C(C)C)C(=O)N12 [Bromocriptine Mesylate]	-2.41	-1.37	-3.2	-1.96
C=C1/C(=C\C=C2/CCC[C@]3(C)[C@@H]([C@H](C)/C=C/[C@H](C)C(C)C)CC[C@@H]23)C[C@@H](O)C[C@@H]1O [Doxercalciferol (Hectorol)]	-5.24	-0.338	-1.55	-0.941
NS(=O)(=O)c1cc2c(cc1Cl)NCNS2(=O)=O [Hydrochlorothiazide]	1.07	1.09	1.58	1.26
COc1ccc(-n2nc(C(N)=O)c3c2C(=O)N(c2ccc(N4CCCCC4=O)cc2)CC3)cc1 [Apixaban]	-0.498	0.107	-0.846	-0.294
NC1CCN(c2c(F)cc3c(=O)c(C(=O)O)cn(C4CC4)c3c2Cl)C1 (centres undefined) [Clinafoxacin HCl]	0.407	0.324	0.571	-0.163
CCC(=O)O[C@]1(C(=O)CCl)[C@@H](C)C[C@H]2[C@@H]3C[C@H](F)C4=CC(=O)C=C[C@]4(C)[C@@]3(F)[C@@H](O)C[C@@]21C [Halobetasol Propionate]	-1.11	-1.41	-0.322	-0.341
COC(=O)/C=C/C(=O)OC [Dimethyl Fumarate]	0.339	0.271	0.742	0.455
CC(=O)Oc1ccc(C(c2ccc(OC(C)=O)cc2)c2ccccn2)cc1 [Bisacodyl]	-2.85	-3.04	-1.08	-0.675
CC1(O)CCOC(=O)C1 (racemic) [DL-Mevalonic Acid Lactone]	-0.164	-3.11	1.16	-0.31
CN/C(=N\CCSCc1nc[nH]c1C)NC#N [Cimetidine (Tagamet)]	0.702	1.18	0.0491	0.521
c1ccc(-c2ccc(C(c3ccccc3)n3ccnc3)cc2)cc1 (centres undefined) [Bifonazole]	-1.75	-2.13	-1.54	-1.52
